From patent US20250152714A1 (IMMUSOFT, published 2025) come the findings set out here.

For this test, the target named is T1, PSMA on PSMA-expressing CHO cells (UniProt Q04609).
T1 construct: whole, on cells; also called PSMA-CHO
Put plainly: flow cytometry, hISP culture supernatant on PSMA-expressing CHO cells. For orientation: A flow cytometer gives signals particle by particle.

T1 sequence (Q04609 whole entry): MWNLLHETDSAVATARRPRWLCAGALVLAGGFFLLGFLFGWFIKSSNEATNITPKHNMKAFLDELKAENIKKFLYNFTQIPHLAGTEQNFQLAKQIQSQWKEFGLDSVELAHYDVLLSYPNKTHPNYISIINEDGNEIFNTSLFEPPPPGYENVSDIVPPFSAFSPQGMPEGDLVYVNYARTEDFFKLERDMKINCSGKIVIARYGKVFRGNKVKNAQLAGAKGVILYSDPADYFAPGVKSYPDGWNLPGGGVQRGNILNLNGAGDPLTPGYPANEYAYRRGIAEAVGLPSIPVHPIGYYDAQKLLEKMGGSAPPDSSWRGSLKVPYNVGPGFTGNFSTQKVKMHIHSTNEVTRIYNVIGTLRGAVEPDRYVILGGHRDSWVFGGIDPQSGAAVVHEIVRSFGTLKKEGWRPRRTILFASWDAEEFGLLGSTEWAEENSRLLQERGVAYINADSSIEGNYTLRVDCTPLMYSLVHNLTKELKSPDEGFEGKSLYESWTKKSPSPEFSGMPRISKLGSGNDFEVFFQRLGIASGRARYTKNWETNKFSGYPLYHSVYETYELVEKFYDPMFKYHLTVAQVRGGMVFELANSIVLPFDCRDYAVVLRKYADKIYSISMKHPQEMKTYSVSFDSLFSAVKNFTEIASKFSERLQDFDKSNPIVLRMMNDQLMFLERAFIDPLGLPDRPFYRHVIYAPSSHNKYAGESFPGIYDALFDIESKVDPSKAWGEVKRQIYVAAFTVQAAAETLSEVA

B1: Herceptin scFv (anti-HER2 scFv-G1Fc) (Fc fusion)
scFv: not shown
notes: also called Herceptin scFv-Ig
On to B1, for which the binding result is recorded as “no binding”.
